According to PubChem BioAssay AID445 (National Center for Advancing Translational Sciences (NCATS), 2006):
About 40 (0.04%) of roughly 110,000 compounds were called active. The inconclusive results got no clear call from the source; some entries with a clear call stand among them for comparison. Calls come from the whole dose curve; as a rule, active = well fitted curve in the direction sought with a large enough effect in the signal ratio (not every such curve was filed as active); inconclusive = small, poorly fitted or top-dose-only effect, or a change in a side signal; inactive = flat fitted curve, though single readings scatter; the % refers to the signal ratio. Potencies beside an inconclusive call are fits to weak or partial responses and may not hold up.

assay: IkB Signaling; settings: ABC-DLBCL IkBa-CBG/CBR dual luciferase ratio (green luciferase fused to IkBa over red control in OCI-Ly3 lymphoma cells), 4 h; IkBa stabilization activation: at 57.1 µM (top of the series), scaled: untreated 0%, proteasome inhibitor 100% unless noted;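 for IkBa stabilization activation: 0% = basal untreated cells and 100% = reference inhibitor full response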
Outline: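 Luminescence ratio of IκBα-fused green versus native red beetle luciferase in OCI-Ly3 cells, 4 h post-doxycycline with compound; red signal alone, scaled from basal (0%) to zero light (-100%), flagged nonspecific or cytotoxic effects.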
Potency is the fitted concentration of half-maximal effect.

Row | Structure (SMILES) | IkBa stabilization activation | Potency
1 | COC(=O)c1ccc2oc(=O)c(S(=O)(=O)c3ccc(C)cc3)cc2c1 | inconclusive: 4.36% [signal inhibitor] | 
2 | CCCC(=O)Nc1cccc(-c2nc3cc(C)c(C)cc3o2)c1C | inconclusive: 3.4% [signal inhibitor] | 
3 | COc1ccc(C(=O)Nc2nccs2)cc1OC | inactive | 
4 | COc1ccc(F)cc1NC(=O)C1CCN(c2nc(-c3ccc(OC)c(OC)c3)no2)CC1 | inconclusive: 4.73% [signal inhibitor] | 
5 | COc1cccc(-c2cncnc2NCCc2cnc[nH]2)c1 | inactive: -1.41% [at 11.4 µM, scaled: untreated 0%, proteasome inhibitor 100%] | 
6 | COc1ccc(Nc2ncc(C(=O)Nc3cc(C)ccc3OC)c3ccccc23)cc1 | inconclusive: -3.07% [signal inhibitor] | 
7 | O=C(COc1ccc(F)cc1)Nc1cccc(OCc2cc(=O)n3ccccc3n2)c1 | inconclusive: 1.59% [signal inhibitor] | 
8 | COc1ccc(NC(=O)CCc2c(C)nc3c(-c4ccccc4)c(C)nn3c2C)cc1Cl | inconclusive: 4.1% [signal inhibitor] | 
9 | Cc1ccc2c(c1)c1c(c(=O)n(-c3ccccc3C)c(=O)n1Cc1ccccc1F)n2C | inactive | 
10 | Cn1c(C(=O)NCc2ccc(Cl)cc2)cc2c(=O)n(C)c3ccccc3c21 | inactive | 
11 | Cc1ccc(Cl)cc1NC(=O)Cn1c(=O)oc2cc(S(=O)(=O)N3CCCCCC3)ccc21 | inactive | 
12 | O=C(CSc1ccc2nnc(-c3ccccc3)n2n1)N1CCN(c2ccccc2)CC1 | inactive | 
13 | Fc1ccc(-n2ncc3c(Nc4ccc(Oc5ccccc5)cc4)ncnc32)cc1 | inactive | 
14 | Cc1cccc(CNc2ccnc(-c3ccccc3Cl)n2)c1 | inactive: -0.184% [at 11.4 µM, scaled: untreated 0%, proteasome inhibitor 100%] | 
15 | Cc1cc(Cl)ccc1NC(=O)CSc1nnc(Cc2cccs2)n1Cc1ccco1 | inconclusive: 3.09% [signal inhibitor] | 
16 | CCOC(=O)c1nnn(C(CC)C(=O)Nc2c(C)cccc2C)c1C(=O)OCC (stereo not given) | inconclusive: 2.42% [signal inhibitor] | 
17 | CCc1ccccc1NC(=O)c1cc(-c2cccc(O)c2)on1 |  | inconclusive: 15.8 µM [signal inhibitor, partial curve]
18 | O=c1oc2ccccc2c(O)c1/C=N/c1nc(-c2ccc(O)c(O)c2)cs1 |  | inconclusive: 3.98 µM [signal inhibitor, partial curve]
19 | CCc1ccccc1NC(=O)CCCN1C(=O)COc2ccc(C)cc21 | inconclusive: 0.757% [signal inhibitor] | 
20 | CCOc1ccc(-c2cccc(NS(=O)(=O)c3ccc(Cl)s3)c2)nn1 | inconclusive: -0.642% [signal inhibitor] | 
21 | Cc1ccc2c(c1)c1c(c(=O)n(-c3cccc(Cl)c3)c(=O)n1C)n2C | inconclusive: 8.19% [signal inhibitor] | 
22 | CCOC(=O)C1=C(C)OC(N)=C(C#N)C1C1CCCCC1 (stereo not given) | inactive | 
23 | COc1ccc(C)cc1S(=O)(=O)N1CCN(c2cccc(C(F)(F)F)c2)CC1 | inconclusive: 4.7% [signal inhibitor] | 

Row | Structure (SMILES) | IkBa stabilization activation | Potency
24 | COc1ccc(CNC(=O)c2ccc(Sc3ccc(Cl)cc3)c(NC(C)=O)c2)c(OC)c1 | inactive | 
25 | C[C@@H](COc1ccc(/C=C\c2ccccc2)cc1)[N+](C)(C)C | inactive | 
26 | CCOC(=O)c1c(NC(=O)c2cc3nc(-c4ccc(OC)cc4)cc(C(F)(F)F)n3n2)sc(C)c1C | inactive | 
27 | CCc1cccc(NC(=O)c2c(C)oc3ncnc(N4CCCCC4)c23)c1 | inconclusive: -2.91% [signal inhibitor] | 
28 | O=C1CN(C(=O)COc2ccc(Cl)cc2Cl)C(c2ccc(F)cc2)c2cc(F)ccc2N1 (stereo not given) | inconclusive: -0.313% [signal inhibitor] | 
29 | c1ccc2c(c1)oc1c(NCCCn3ccnc3)ncnc12 | inactive | 
30 | Fc1cccc(Cl)c1CSc1nnnn1-c1ccc2c(c1)OCO2 | inconclusive: 0.292% [signal inhibitor] | 
31 | COC(=O)C(CC(C)C)NC(=O)c1cc(OC)c(OC)c(OC)c1 (stereo not given) | inconclusive: 9.66% [signal inhibitor] | 
32 | CC1=C(C#N)C(NC(=O)C2CC2)(C(F)(F)F)C(=O)N1 (stereo not given) | inconclusive: 2.13% [signal inhibitor] | 
33 | COc1ccc(-n2cc(C(=O)Nc3ccccc3C#N)c3ccccc3c2=O)cc1 |  | inconclusive: 20 µM [signal inhibitor]
34 | O=C(c1ccco1)N1CCN(c2ncnc3c(-c4ccccc4)nsc23)CC1 | inconclusive: -0.619% [signal inhibitor] | 
35 | Cc1nc(SCCOc2ccc(Cl)cc2)[nH]c(=O)c1Cc1ccccc1 | inconclusive: 1.82% [signal inhibitor] | 
36 | COc1cccc(-n2cc(C(=O)Nc3ccccc3C(N)=O)c3ccccc3c2=O)c1 | inconclusive: 6.71% [signal inhibitor] | 
37 | CCOc1ccc(NC(=O)Cn2c(=O)n(Cc3ccccc3)c(=O)c3c4c(sc32)CN(C(C)=O)CC4)cc1 | inconclusive: 1.77% [signal inhibitor] | 
38 | COc1ccccc1NC(=O)C1=C(C)Nc2ncnn2C1c1sccc1C (stereo not given) | inactive | 
39 | Cc1ccccc1CNC(=O)Cn1cc2c(n1)-c1c(oc(C(=O)N3CCCC3)c1C)CC2 | inconclusive: -1.95% [signal inhibitor] | 
40 | COc1ccc2nc(NC(=O)c3nc(SCc4cccc(C)c4)ncc3Cl)sc2c1 | inactive | 
41 | COc1cc(OC)cc(C(=O)Nc2cccc(NC(C)=O)c2)c1 | inconclusive: 14.2% [signal inhibitor] | 
42 | CC1CCCCN1S(=O)(=O)c1ccc2[nH]c(=O)cc(C(=O)NCCc3ccc(Cl)cc3)c2c1 (stereo not given) | inactive | 
43 | COC(=O)c1c(NC(=O)c2c(OC)cccc2OC)sc2c1CCCC2 | inconclusive: 12.7% [signal inhibitor] | 
44 | CC(=O)c1cccc(Nc2ncnc3c2cnn3-c2cccc(Cl)c2)c1 | inconclusive: -1.89% [signal inhibitor] | 
45 | COc1cccc(NC(=O)CC2Oc3ccccc3NC2=O)c1 (stereo not given) | inconclusive: 1.51% [signal inhibitor] | 
